# Source: the supplement of paper PMC8728848
# This is one part of the list.
# B1: RS2L (Ralstonia solanacearum), B5RXL5_RALSO (protein)
# chain: MAQQGVFTLPANTSFGVTAFANAANTQTIQVLVDNVVKATFTGSGTSDKLLGSQVLNSGSGAIKIQVSVNGKPSDLVSNQTILANKLNFAMVGSEDGTDNDYNDGIAVLNWPLG
# Columns and labels:
# Experiment in all cases: glycan array binding signal (z-score within array); higher = stronger binding
# Conditions in all cases: glycan notation: IUPAC condensed, linker removed
# [1] = target: Man(a1-2)Man(a1-3)[Man(a1-6)]Man(a1-6)[Man(a1-2)Man(a1-3)]Man(b1-4)GlcNAc(b1-4)GlcNAc
# Procedure, shortened: (§1)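 Glycan array data were curated from 3228 arrays in the Consortium for Functional Glycomics database and kept only where the protein sequence was available. Glycan names were converted to IUPAC-condensed notation, and columns mapping to the same glycan were averaged. The binding signal is a within-array Z-score, averaged across arrays of the same protein sequence at different concentrations or buffers and across linkers. Negative Z-scores can be read as non-binding.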
# [2] = target: Man(a1-2)Man(a1-6)[Man(a1-3)]Man(a1-6)[Man(a1-2)Man(a1-2)Man(a1-3)]Man
# Procedure, shortened: as §1
# [3] = target: Man(a1-2)Man(a1-6)[Man(a1-3)]Man(a1-6)[Man(a1-2)Man(a1-2)Man(a1-3)]Man(b1-4)GlcNAc(b1-4)GlcNAc
# Procedure, shortened: as §1
# [4] = target: Man(a1-3)[Man(a1-6)]Man
# Procedure, shortened: as §1
# [5] = target: Man(a1-3)[Man(a1-6)]Man(a1-6)[Man(a1-2)Man(a1-3)]Man(b1-4)GlcNAc(b1-4)GlcNAc
# Procedure, shortened: as §1
# [6] = target: Man(a1-3)[Man(a1-6)]Man(a1-6)[Man(a1-3)]Man
# Procedure, shortened: as §1
# [7] = target: Man(a1-3)[Man(a1-6)]Man(a1-6)[Man(a1-3)]Man(b1-4)GlcNAc(b1-4)GlcNAc
# Procedure, shortened: as §1
# [8] = target: Man(a1-3)[Man(a1-6)]Man(b1-4)GlcNAc(b1-4)GlcNAc
# Procedure, shortened: as §1
# [9] = target: Man(a1-6)Man
# Procedure, shortened: as §1
# [10] = target: Man(b1-4)GlcNAc
# Procedure, shortened: as §1
# [11] = target: Neu5Ac(a2-3)Gal
# Procedure, shortened: as §1
# [12] = target: Neu5Ac(a2-3)Gal(b1-3)GalNAc
# Procedure, shortened: as §1
# [13] = target: Neu5Ac(a2-3)Gal(b1-3)GalNAc(b1-3)Gal(a1-4)Gal(b1-4)Glc
# Procedure, shortened: as §1
# [14] = target: Neu5Ac(a2-3)Gal(b1-3)GalNAc(b1-4)[Neu5Ac(a2-3)]Gal(b1-4)Glc
# Procedure, shortened: as §1
# [15] = target: Neu5Ac(a2-3)Gal(b1-3)GalNAc(b1-4)[Neu5Ac(a2-8)Neu5Ac(a2-3)]Gal(b1-4)Glc
# Procedure, shortened: as §1
# [16] = target: Neu5Ac(a2-3)Gal(b1-3)GalNAc6S
# Procedure, shortened: as §1
# [17] = target: Neu5Ac(a2-3)Gal(b1-3)GlcNAc
# Procedure, shortened: as §1
# [18] = target: Neu5Ac(a2-3)Gal(b1-3)GlcNAc(b1-3)Gal(b1-3)GlcNAc
# Procedure, shortened: as §1
# [19] = target: Neu5Ac(a2-3)Gal(b1-3)GlcNAc(b1-3)Gal(b1-4)GlcNAc
# Procedure, shortened: as §1
# [20] = target: Neu5Ac(a2-3)Gal(b1-3)GlcNAc(b1-3)GalNAc
# Procedure, shortened: as §1
# [21] = target: Neu5Ac(a2-3)Gal(b1-3)GlcNAc6S
# Procedure, shortened: as §1
# [22] = target: Neu5Ac(a2-3)Gal(b1-3)[Fuc(a1-4)]GlcNAc
# Procedure, shortened: as §1
# [23] = target: Neu5Ac(a2-3)Gal(b1-3)[Fuc(a1-4)]GlcNAc(b1-3)Gal(b1-3)[Fuc(a1-4)]GlcNAc
# Procedure, shortened: as §1
# [24] = target: Neu5Ac(a2-3)Gal(b1-3)[Fuc(a1-4)]GlcNAc(b1-3)Gal(b1-4)[Fuc(a1-3)]GlcNAc
# Procedure, shortened: as §1
# [25] = target: Neu5Ac(a2-3)Gal(b1-3)[Neu5Ac(a2-3)Gal(b1-4)]GlcNAc
# Procedure, shortened: as §1
# [26] = target: Neu5Ac(a2-3)Gal(b1-3)[Neu5Ac(a2-6)]GalNAc
# Procedure, shortened: as §1
# [27] = target: Neu5Ac(a2-3)Gal(b1-4)Glc
# Procedure, shortened: as §1
# [28] = target: Neu5Ac(a2-3)Gal(b1-4)GlcNAc
# Procedure, shortened: as §1
# [29] = target: Neu5Ac(a2-3)Gal(b1-4)GlcNAc(b1-2)Man(a1-3)[GlcNAc(b1-2)Man(b1-4)GlcNAc(b1-2)Man(a1-6)]Man(b1-4)GlcNAc(b1-4)GlcNAc
# Procedure, shortened: as §1
# [30] = target: Neu5Ac(a2-3)Gal(b1-4)GlcNAc(b1-2)Man(a1-3)[Neu5Ac(a2-6)Gal(b1-4)GlcNAc(b1-2)Man(a1-6)]Man(b1-4)GlcNAc(b1-4)GlcNAc
# Procedure, shortened: as §1
# [31] = target: Neu5Ac(a2-3)Gal(b1-4)GlcNAc(b1-3)Gal
# Procedure, shortened: as §1
# [32] = target: Neu5Ac(a2-3)Gal(b1-4)GlcNAc(b1-3)Gal(b1-3)GlcNAc
# Procedure, shortened: as §1
# [33] = target: Neu5Ac(a2-3)Gal(b1-4)GlcNAc(b1-3)Gal(b1-4)GlcNAc
# Procedure, shortened: as §1
# [34] = target: Neu5Ac(a2-3)Gal(b1-4)GlcNAc(b1-3)Gal(b1-4)GlcNAc(b1-3)Gal(b1-4)GlcNAc
# Procedure, shortened: as §1
# [35] = target: Neu5Ac(a2-3)Gal(b1-4)GlcNAc(b1-3)Gal(b1-4)[Fuc(a1-3)]GlcNAc
# Procedure, shortened: as §1
# [36] = target: Neu5Ac(a2-3)Gal(b1-4)GlcNAc(b1-3)GalNAc
# Procedure, shortened: as §1
# [37] = target: Neu5Ac(a2-3)Gal(b1-4)GlcNAc(b1-6)[Gal(b1-3)]GalNAc
# Procedure, shortened: as §1
# [38] = target: Neu5Ac(a2-3)Gal(b1-4)GlcNAc(b1-6)[Neu5Ac(a2-3)Gal(b1-3)]GalNAc
# Procedure, shortened: as §1
# [39] = target: Neu5Ac(a2-3)Gal(b1-4)GlcNAc6S
# Procedure, shortened: as §1
# [40] = target: Neu5Ac(a2-3)Gal(b1-4)[Fuc(a1-3)]GlcNAc
# Procedure, shortened: as §1
# [41] = target: Neu5Ac(a2-3)Gal(b1-4)[Fuc(a1-3)]GlcNAc(b1-3)Gal
# Procedure, shortened: as §1
# [42] = target: Neu5Ac(a2-3)Gal(b1-4)[Fuc(a1-3)]GlcNAc(b1-3)Gal(b1-4)GlcNAc
# Procedure, shortened: as §1
# [43] = target: Neu5Ac(a2-3)Gal(b1-4)[Fuc(a1-3)]GlcNAc(b1-3)Gal(b1-4)[Fuc(a1-3)]GlcNAc(b1-3)Gal(b1-4)[Fuc(a1-3)]GlcNAc
# Procedure, shortened: as §1
# [44] = target: Neu5Ac(a2-3)Gal(b1-4)[Fuc(a1-3)]GlcNAc(b1-3)GalNAc
# Procedure, shortened: as §1
# [45] = target: Neu5Ac(a2-3)Gal(b1-4)[Fuc(a1-3)]GlcNAc(b1-6)[Gal(b1-3)]GalNAc
# Procedure, shortened: as §1
# [46] = target: Neu5Ac(a2-3)Gal(b1-4)[Fuc(a1-3)]GlcNAc6S
# Procedure, shortened: as §1
# [47] = target: Neu5Ac(a2-3)Gal6S(b1-4)GlcNAc
# Procedure, shortened: as §1
# [48] = target: Neu5Ac(a2-3)Gal6S(b1-4)[Fuc(a1-3)]GlcNAc
# Procedure, shortened: as §1
# [49] = target: Neu5Ac(a2-3)GalNAc
# Procedure, shortened: as §1
# [50] = target: Neu5Ac(a2-3)GalNAc(b1-4)GlcNAc
# Procedure, shortened: as §1
binder,measurement,setting,value
B1,glycan array binding signal (z-score),[1],3.58
same,glycan array binding signal (z-score),[2],5.7
same,glycan array binding signal (z-score),[3],5.97
same,glycan array binding signal (z-score),[4],7.32
same,glycan array binding signal (z-score),[5],6.99
same,glycan array binding signal (z-score),[6],5.11
same,glycan array binding signal (z-score),[7],5.42
same,glycan array binding signal (z-score),[8],3.86
same,glycan array binding signal (z-score),[9],0.413
same,glycan array binding signal (z-score),[10],-0.242
same,glycan array binding signal (z-score),[11],-0.251
same,glycan array binding signal (z-score),[12],-0.239
same,glycan array binding signal (z-score),[13],-0.25
same,glycan array binding signal (z-score),[14],-0.252
same,glycan array binding signal (z-score),[15],-0.217
same,glycan array binding signal (z-score),[16],-0.252
same,glycan array binding signal (z-score),[17],-0.247
same,glycan array binding signal (z-score),[18],-0.244
same,glycan array binding signal (z-score),[19],-0.226
same,glycan array binding signal (z-score),[20],-0.235
same,glycan array binding signal (z-score),[21],-0.246
same,glycan array binding signal (z-score),[22],-0.188
same,glycan array binding signal (z-score),[23],0.105
same,glycan array binding signal (z-score),[24],-0.023
same,glycan array binding signal (z-score),[25],-0.251
same,glycan array binding signal (z-score),[26],-0.13
same,glycan array binding signal (z-score),[27],-0.249
same,glycan array binding signal (z-score),[28],-0.243
same,glycan array binding signal (z-score),[29],-0.245
same,glycan array binding signal (z-score),[30],-0.244
same,glycan array binding signal (z-score),[31],-0.219
same,glycan array binding signal (z-score),[32],-0.235
same,glycan array binding signal (z-score),[33],-0.247
same,glycan array binding signal (z-score),[34],-0.242
same,glycan array binding signal (z-score),[35],-0.245
same,glycan array binding signal (z-score),[36],-0.244
same,glycan array binding signal (z-score),[37],-0.25
same,glycan array binding signal (z-score),[38],-0.254
same,glycan array binding signal (z-score),[39],-0.24
same,glycan array binding signal (z-score),[40],-0.232
same,glycan array binding signal (z-score),[41],-0.253
same,glycan array binding signal (z-score),[42],-0.22
same,glycan array binding signal (z-score),[43],-0.12
same,glycan array binding signal (z-score),[44],-0.213
same,glycan array binding signal (z-score),[45],-0.242
same,glycan array binding signal (z-score),[46],-0.244
same,glycan array binding signal (z-score),[47],-0.24
same,glycan array binding signal (z-score),[48],-0.24
same,glycan array binding signal (z-score),[49],-0.239
same,glycan array binding signal (z-score),[50],-0.237
